Source: the supplement of paper PMC7125110
± gives the standard error. Variants at the floor of the assay are shown more often than the library holds them.

B1: glmS ribozyme (parent)
chain: AUAAAAGCGCCAGAACUACAGAAAUGUAGUUGACGAGGAGGAGGUUUAUCGAAUUUUCGGCGGAUGCCUCCAAA

Assays:
Conditions in all cases: with glucosamine-6-phosphate
glucosamine-6-phosphate [1] = variants of: B1; experiment: self-cleavage kobs at 40 uM GlcN6P; higher = faster cleavage; RNA array
Method in brief: (§1)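 Over ~14 h at 37 °C, tiles were imaged as glucosamine-6-phosphate (40 μM to 10 mM) in HEPES/KCl/Mg(OAc)2 buffer flowed across sequenced MiSeq chips. The chips carried barcoded ribozyme variants transcribed in situ by E. coli RNA polymerase and tracked with a hybridised Cy3 probe. After normalisation to baseline and to non-cleaving reference variants, one- or two-exponential decay fits of per-tile medians gave kobs. kcat and KM followed from weighted Michaelis–Menten fits across concentrations.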

glucosamine-6-phosphate [2] = variants of: B1; experiment: self-cleavage kobs at 10000 uM GlcN6P; higher = faster cleavage; RNA array
Method in brief: as §1

glucosamine-6-phosphate [3] = variants of: B1; experiment: self-cleavage kobs at 2500 uM GlcN6P; higher = faster cleavage; RNA array
Method in brief: as §1

glucosamine-6-phosphate [4] = variants of: B1; experiment: self-cleavage kobs at 160 uM GlcN6P; higher = faster cleavage; RNA array
Method in brief: as §1

glucosamine-6-phosphate [5] = variants of: B1; experiment: self-cleavage kobs at 640 uM GlcN6P; higher = faster cleavage; RNA array
Method in brief: as §1

Variant	self-cleavage kobs at 40 uM GlcN6P (glucosamine-6-phosphate [1]) [s⁻¹]	self-cleavage kobs at 10000 uM GlcN6P (glucosamine-6-phosphate [2]) [s⁻¹]	self-cleavage kobs at 2500 uM GlcN6P (glucosamine-6-phosphate [3]) [s⁻¹]	self-cleavage kobs at 160 uM GlcN6P (glucosamine-6-phosphate [4]) [s⁻¹]	self-cleavage kobs at 640 uM GlcN6P (glucosamine-6-phosphate [5]) [s⁻¹]
AUAAAAGCGCCAGAACUACAGAAAUGUAGUUGAAGAGGACGAGGUUUAUCGCAUUUUCGGAUGAUGCGUCCAAA [C34A G40C A52C C61A G62U C68G]	< 1e-05	< 1e-05	–	–	–
AUAAAAGCGCCAGAACUACAGAAAUGUAGUUGUCGAGGUUGAGGUUUAUCGAAUUUUCGGCGGAUGCCUCCAAA [A33U A39U G40U]	< 1e-05	–	–	–	–
AUAAAAGCGCCAGAACUACAGAAAUGUAGUUGCCGAGGAGGAGGUUUAUCGAAUCUCCGGCGGAUGCCUCCAAA [A33C U55C U57C]	< 1e-05	< 1e-05	–	–	–
AUAAAAGCGCCAGAACUACAGAAAUGUAGUUGGCGAAGAGGAGGUUUAUCGAAUUUUCGGCGGAUGCCUCCAAA [A33G G37A]	< 1e-05	< 1e-05	< 1e-05	–	–
AUAAAAGCGCCAGAACUACAGAAAUGUAGUUGUCGCGGAGGAGGUUUAUCGAAUUUUGGGCGGAUGCCCCCAAA [A33U A36C C58G U69C]	4.07e-05 ± 2e-05	–	–	7.32e-05 ± 1.9e-05	–
AUAAAAGCGCCAGAACUACAGAAAUGUAGUUGGCGAGGAGGAGAUUUAUCGAAUUUUCGGCGGAUGCCUCCAAA [A33G G44A]	< 1e-05	< 1e-05	< 1e-05	< 1e-05	< 1e-05
AUAAAAGCGCCAGAACUACAGAAAUGUAGUUGGCGAGGAGGAGGUUUAUCGAAUUUUCGGCGGAUGCAUCCAAA [A33G C68A]	< 1e-05	–	–	–	–
AUAAAAGCGCCAGAACUACAGAAAUGUAGUUGUUGAGGAGGAGGUUUAUCGAAUUUUCGGCGGAUGCCUCCAAA [A33U C34U]	< 1e-05	< 1e-05	–	< 1e-05	< 1e-05
AUAAAAGCGCCAGAACUACAGAAAUGUAGUUGGCGAGGAGGAUGUGUAUCGAAUUUUCUGCGGAUGCCUCCAAA [A33G G43U U46G G59U]	< 1e-05	–	–	–	–
AUAAAAGCGCCAGAACUACAGAAAUGUAGUUGUCGAGGAGGUGGUUUAUCGAAUUUUCGGUGGAUGCCUCCAAA [A33U A42U C61U]	< 1e-05	–	–	–	–
AUAAAAGCGCCAGAACUACAGAAAUGUAGUUGGCGCGGAGGAGGUUUAUCGAAUUUUCGGCGGAUGCCUCCAAA [A33G A36C]	< 1e-05	< 1e-05	–	< 1e-05	< 1e-05
AUAAAAGCGCCAGAACUACAGAAAUGUAGUUGUCGUGGAGCAGGUUUAUCGAAUUUUCGGGGGAUGCCUCCAAA [A33U A36U G41C C61G]	< 1e-05	–	< 1e-05	–	–
AUAAAAGCGCCAGAACUACAGAAAUGUAGUUGGCGAGGACGAGGUUUAUCGAAUUUUCGGCGGAUGCCUCCAAA [A33G G40C]	< 1e-05	–	< 1e-05	–	–
AUAAAAGCGCCAGAACUACAGAAAUGUAGUUGUCGCGGAGUAGGUCUAUCGAAUUUUCGGCGGAUGCCUCUAAA [A33U A36C G41U U46C C71U]	< 1e-05	< 1e-05	< 1e-05	–	–
AUAAAAGCGCCAGAACUACAGAAAUGUAGUUGUCGAGGAGUAGAUUUAUCGAAUUUUCGGCGGAUGCCUCCAAA [A33U G41U G44A]	< 1e-05	–	–	–	–
AUAAAAGCGCCAGAACUACAGAAAUGUAGUUGGCGAGAAGGAGGUUUAUCGAAUUUUCGGCGGAUGCCUCCAAA [A33G G38A]	< 1e-05	< 1e-05	–	–	< 1e-05
AUAAAAGCGCCAGAACUACAGAAAUGUAGUUGUCGAGGAGGAGAUUUAUCGAAUUUUCGGCGGAUGCCUCCAAA [A33U G44A]	< 1e-05	< 1e-05	–	< 1e-05	< 1e-05
AUAAAAGCGCCAGAACUACAGAAAUGUAGUUGGCGAGGAGGAGGUUUAUCGCAUUUUCGGCGGAUGCCUUCAAA [A33G A52C C70U]	< 1e-05	< 1e-05	–	–	–
AUAAAAGCGCCAGAACUACAGAAAUGUAGUUGGCGAAGAGGAGGUUUAUCUAAUUUUCGGCGGAUGCGUCCAAA [A33G G37A G51U C68G]	< 1e-05	< 1e-05	–	–	–
AUAAAAGCGCCAGAACUACAGAAAUGUAGUUGUUGAGGUGGAGGUUUAUCGAAUUUUCGGCGGAUGCCUCGAAA [A33U C34U A39U C71G]	< 1e-05	< 1e-05	–	–	–
AUAAAAGCGCCAGAACUACAGAAAUGUAGUUGAAGAGGAGGAGGUUUAUCGAAUUUUCGGUGGAUGCCUCCAAA [C34A C61U]	< 1e-05	< 1e-05	< 1e-05	< 1e-05	< 1e-05
AUAAAAGCGCCAGAACUACAGAAAUGUAGUUGAAGAGGAGGAGGUUUAUCGAUUUUUCGGCGGAUGCCUCCAAA [C34A A53U]	< 1e-05	–	–	< 1e-05	< 1e-05
AUAAAAGCGCCAGAACUACAGAAAUGUAGUUGAAGAGGAGGGGGUUUAUCGAAUUUUCGGCGGAUGCCUCCAAA [C34A A42G]	< 1e-05	–	< 1e-05	< 1e-05	< 1e-05
AUAAAAGCGCCAGAACUACAGAAAUGUAGUUGUCGAGGAGGAGGUUUAUUGAAUUUUCGGCGGAUGCCUCCAAA [A33U C50U]	< 1e-05	–	–	–	–
AUAAAAGCGCCAGAACUACAGAAAUGUAGUUGUCGAGGAGGAGGUUUAUCCAAUUUUCGGCGGAUGCCUCCAAA [A33U G51C]	< 1e-05	< 1e-05	< 1e-05	< 1e-05	–
AUAAAAGCGCCAGAACUACAGAAAUGUAGUUGUCGAGGAGGAGGUUUAUCAAAUUUUCGGCGGAUGCCUCCAAA [A33U G51A]	< 1e-05	–	–	–	–
AUAAAAGCGCCAGAACUACAGAAAUGUAGUUGGCGAGGAGGAGGUGUAUCGAAUUUUCGGCGGAUGCCUCCAAA [A33G U46G]	< 1e-05	< 1e-05	< 1e-05	–	–
AUAAAAGCGCCAGAACUACAGAAAUGUAGUUGGCGAGGAGGAGGUUUAUCGACUUUUCGGCGGAUGCCUCCAAA [A33G A53C]	< 1e-05	< 1e-05	< 1e-05	–	< 1e-05
AUAAAAGCGCCAGAACUACAGAAAUGUAGUUGGCGAGGAGGAGGUUUAUCGAAUUUUCGGCGGAUACCUCCAAA [A33G G66A]	< 1e-05	< 1e-05	–	< 1e-05	–
